Experimental data reported in the supplement of paper PMC3334620.
Whole data set: some 33,000 sequences, median “E-score (-0.5 to 0.5)” near -0.035, cut for the highest 2% near 0.35. The list shows a part of the results.

Biological target: T1, Pdr3 (UniProt P33200)
T1 sequence: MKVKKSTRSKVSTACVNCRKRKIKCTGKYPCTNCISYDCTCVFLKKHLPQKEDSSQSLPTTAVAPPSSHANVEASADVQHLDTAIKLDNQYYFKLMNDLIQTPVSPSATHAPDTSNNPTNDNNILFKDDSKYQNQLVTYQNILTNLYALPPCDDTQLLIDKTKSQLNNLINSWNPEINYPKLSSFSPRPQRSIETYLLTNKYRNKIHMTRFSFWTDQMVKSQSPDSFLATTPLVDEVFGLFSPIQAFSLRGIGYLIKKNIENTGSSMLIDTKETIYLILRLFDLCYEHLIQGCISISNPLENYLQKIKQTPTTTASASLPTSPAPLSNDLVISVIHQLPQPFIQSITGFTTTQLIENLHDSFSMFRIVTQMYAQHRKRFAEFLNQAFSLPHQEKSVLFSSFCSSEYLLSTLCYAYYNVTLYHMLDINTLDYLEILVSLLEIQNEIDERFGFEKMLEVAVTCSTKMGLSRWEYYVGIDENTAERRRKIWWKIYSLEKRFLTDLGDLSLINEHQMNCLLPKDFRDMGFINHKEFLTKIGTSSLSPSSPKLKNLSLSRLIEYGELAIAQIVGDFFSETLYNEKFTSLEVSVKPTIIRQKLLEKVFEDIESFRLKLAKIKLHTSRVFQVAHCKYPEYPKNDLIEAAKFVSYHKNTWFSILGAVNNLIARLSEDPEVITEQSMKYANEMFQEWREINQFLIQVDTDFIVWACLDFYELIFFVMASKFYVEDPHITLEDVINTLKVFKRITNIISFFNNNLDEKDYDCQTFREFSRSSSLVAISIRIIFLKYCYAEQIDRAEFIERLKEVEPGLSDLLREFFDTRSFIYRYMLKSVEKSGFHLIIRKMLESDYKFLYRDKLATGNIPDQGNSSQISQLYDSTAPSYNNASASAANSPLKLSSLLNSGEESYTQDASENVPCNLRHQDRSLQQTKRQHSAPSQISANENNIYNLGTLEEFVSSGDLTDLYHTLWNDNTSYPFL
Experiment: PBM E-score (8-mer binding enrichment) (E-score (-0.5 to 0.5)); higher = stronger / more preferred TF binding; most listed sequences are background and not binding sites
Conditions: protein concentration: 200 nM; construct: GST-full length
Summary of the method: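 Universal all-10-mer Agilent arrays, double-stranded by primer extension on fresh or once-stripped slides, were probed with about 100-200 nM GST-tagged yeast transcription factors made by PURExpress. Fluorescent anti-GST detected bound protein, and masliner normalised the scans. E-scores from the Universal PBM Analysis Suite were given to each ungapped eight-base word pooled with its reverse complement.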

Row | Sequence | PBM E-score
1 | GCCATCAA | -0.163
2 | TAACTTGA | -0.232
3 | AGCCTACT | -0.186
4 | ATCGTCCC | 0.124
5 | AACCTCGC | 0.0544
6 | CCCTCCAG | -0.0628
7 | GACCGAGA | 0.225
8 | AAGCGTCG | -0.135
9 | GTTGCCGA | 0.234
10 | GCTATAGC | -0.328
11 | AAGCTAGG | -0.0943
12 | CCCCAGTC | -0.0514
13 | CAGCAATA | -0.0745
14 | AGGGCTTC | -0.147
15 | ATCAAGAT | -0.0736
16 | GGCCGATA | 0.0764
17 | ACCTATCG | 0.0761
18 | TTCACGAA | -0.162
19 | ATGGCTTA | -0.111
20 | TACTTTAA | -0.17
21 | ACAAGGGG | -0.0834
22 | CAGGCCCC | -0.238
23 | CCAATATA | -0.0952
24 | CATTCCGG | 0.451
25 | GCCATTAC | 0.137

Row | Sequence | PBM E-score
26 | GATTTAAA | -0.159
27 | CGTCTTGC | -0.0141
28 | GCTTGTTA | 0.0045
29 | GCCCTTTA | -0.304
30 | AATAAGCT | -0.0309
31 | ACCACCAT | 0.116
32 | CGGCCCAA | 0.177
33 | CGGAACCA | 0.483
34 | ATTGATGA | 0.124
35 | GACTAGCC | -0.311
36 | ACCGCGAG | -0.00369
37 | TTAGTAAA | -0.0384
38 | AGGGGATG | -0.14
39 | AAGTAGGC | -0.0291
40 | AGATGCCG | 0.168
41 | ACGATGGA | 0.0819
42 | AGCATAGG | -0.229
43 | CGGATATC | 0.391
44 | ATAGTCGA | 0.0166
45 | ACACTAGA | -0.0149
46 | CCCATGCA | -0.0997
47 | TCTATAAA | -0.167
48 | CATCTTAC | -0.215
49 | ACAACTAT | 0.105
50 | TCCTCAGA | -0.124

Row | Sequence | PBM E-score
51 | CGCGCAAG | 0.109
52 | CAACAACC | -0.0219
53 | CTAAGTTA | -0.304
54 | AAGATCAT | -0.126
55 | CCTCTGAC | 0.021
56 | CGAGCCAC | -0.101
57 | CCGAATAA | 0.2
58 | CCACAAAG | 0.0085
59 | ACCCACAT | 0.00786
60 | GTACGCTA | -0.0803
61 | ACAGAAGA | 0.0897
62 | ACGGTGTG | -0.103
63 | ACATTTTG | -0.198
64 | CTGTCTTA | -0.138
65 | AGACACGG | 0.18
66 | ATGCCCCA | -0.0204
67 | CGACTAGC | -0.0653
68 | CAAGGAGG | -0.0449
69 | AGAATCCG | 0.215
70 | AATCTTCT | 0.022
71 | TCGGGAGA | 0.12
72 | CTGTGACA | -0.192
73 | ATAGACGC | 0.126
74 | ATCAGGAA | 0.0955
75 | CCGCTGCA | 0.0776

Row | Sequence | PBM E-score
76 | CTGCGAAG | -0.19
77 | AACAGAGC | -0.0483
78 | AACATCTG | -0.17
79 | AGCCGAGA | 0.139
80 | GGCACCCC | -0.0993
81 | CACTTTAG | -0.149
82 | ATTGAGAC | 0.0312
83 | GGATGTAA | 0.226
84 | GGATTCTA | 0.0635
85 | CTCGTAGC | -0.167
86 | ATCTGTTC | 0.084
87 | GCAGAGGC | -0.108
88 | AAATAACG | -0.0302
89 | ATCGCCTG | -0.0606
90 | CGGGCGAG | 0.155
91 | AGACGCAA | 0.074
92 | GGGCAGAA | 0.0965
93 | GAGCGTGC | 0.0566
94 | AGCAGATC | -0.0743
95 | ATATTTGC | 0.118
96 | ATCGCAGG | -0.182
97 | TGTTGGAA | -0.0318
98 | CATGCCCC | 0.0743
99 | AACACGCA | -0.0584
100 | CGTCTCCC | 0.156

Row | Sequence | PBM E-score
101 | AGACTTGA | -0.273
102 | GCATGCGC | 0.0518
103 | AGTACAAT | -0.0444
104 | CCGAAATC | 0.278
105 | CGTCTTAC | -0.158
106 | CCCTTACG | -0.137
107 | TGTGCAAA | -0.281
108 | CATATCTA | 0.141
109 | AGCGGGTA | 0.0103
110 | GGCTCAAC | -0.247
111 | ACAATTTG | -0.117
112 | GGTGGGGA | 0.206
113 | AAACTGTA | 0.00412
114 | AGTGTAAT | -0.12
115 | CACTAAAC | -0.106
116 | AAACGGCG | 0.159
117 | CCGGGCGA | 0.291
118 | ATGACACG | 0.133
119 | AAACCGAG | 0.026
120 | AGCGTCGC | -0.0207
121 | AGGACGGA | 0.269
122 | GCATAATA | 0.0537
123 | AAGCAGGG | -0.216
124 | ACTACAGC | -0.174
125 | CTGTCCAC | 0.075

Row | Sequence | PBM E-score
126 | AAATATAA | 0.0139
127 | CCACGAGG | -0.094
128 | ATGCCCGC | 0.242
129 | CACATGAG | -0.275
130 | CAACTACC | -0.0852
131 | CGAGCGCA | 0.128
132 | TAGACGCA | -0.132
133 | ACTTAAAC | -0.149
134 | GCCAGCAC | -0.0443
135 | TCCGGAAA | 0.466
136 | CGCACCCG | 0.313
137 | TCGACGAA | 0.0119
138 | GTTAGGAA | -0.0285
139 | AGGGCAAA | -0.00116
140 | GCGCAAAC | 0.189
141 | GCTGCAAC | -0.0643
142 | ATGTGTTC | 0.228
143 | AGCGAGGA | 0.0797
144 | CATGAAAG | 0.0423
145 | CATACGGA | 0.359
146 | CCGGGCGC | 0.202
147 | GTATGCTA | -0.0709
148 | CCGCTAGG | 0.0934
149 | CACCACAA | 0.0367
150 | CGGGCACG | 0.215

Row | Sequence | PBM E-score
151 | AACCTTCT | -0.0642
152 | GTAATATA | 0.0706
153 | ACGTCGCA | -0.139
154 | ACTGGGCA | -0.128
155 | CCATCAGG | -0.0111
156 | ATATAAGG | 0.167
157 | TATCACGA | -0.126
158 | GTAAGAAC | -0.0573
159 | CTCGTAAC | -0.108
160 | AATTTCAA | -0.172
161 | ACAAACCT | -0.121
162 | AGAGATAA | -0.11
163 | CACACACG | 0.0957
164 | ATCGGCTG | 0.175
165 | CGTGGACC | 0.14
166 | AGTTTTTC | 0.0835
167 | AACGCAGA | 0.0362
168 | CGTTGCCA | -0.0147
169 | GGGCTGAA | 0.0102
170 | ATCGATTC | 0.109
171 | GCGCAATA | 0.00596
172 | ATCAGGGG | -0.0929
